According to PubChem BioAssay AID493208 (National Center for Advancing Translational Sciences (NCATS), 2011):
Hit rate of the full screen: of about 44,000 compounds, about 340 (0.77%) were called active. Not shown: some 5% with an inconclusive outcome. The call rests on the fitted dose curve; in most records, active means well fitted inhibition curve with a large enough effect; inconclusive means small, poorly fitted or top-dose-only effect; inactive means flat fitted curve, though single readings scatter. Some of the results follow.

experiment: Acumen qHTS Assay for Inhibitors of the mTORC1 Signaling Pathway in MEF (Tsc2-/-, p53-/-) Cells: Sytravon; settings: phospho-rpS6 immunofluorescence/PI, 24 h; series mostly up to 38.3 µM; activity change, negative = inhibition: at the top concentration;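 further: plate controls were DMSO for no effect and rapamycin for full effect; nearly all actives have a fitted effect of over 50% in size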
In short: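 Tsc2-/-, p53-/- MEFs (empty-vector stable line) in DMEM + 10% FBS were treated with compounds 24 h at 37 degree Celsius, fixed, and immunostained for phospho-rpS6 (Alexa-488) with propidium iodide counterstain. Laser-scanning cytometry gave % positive cells, normalized against 7.5 nM rapamycin and DMSO.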

Activity change, negative = inhibition, inactive:
COc1cccc(CNC(=O)c2cccn2-c2nnc(N3CCCC3)s2)c1 5.6%
COc1ccc(C2CC(=O)c3c([nH]c(C(=O)OCCOc4ccccc4)c3C)C2)cc1OC (centres undefined) -11.3%
CCn1cc(C(=O)N2CCN(c3ccccc3)CC2)c(=O)c2cc(S(=O)(=O)N3CCC(C)CC3)ccc21 -1.18%
CCOc1ccc(NC(=O)c2cn3c4c(ccc(Cl)c4c2=O)OC(C)C3)cc1 (centres undefined) 1.68%
Cc1ccc(-c2noc(C3CC(=O)N(c4ccc5c(c4)OCCO5)C3)n2)cc1 (centres undefined) 0.918%
COc1ccc(CNC(=O)C2CCN(S(=O)(=O)c3cn(C)cn3)CC2)cc1 0.597%
COc1ccc(NC(=O)N(Cc2ccco2)C2CCN(C(C)=O)CC2)c(OC)c1 -7.64%
CCSc1nc(=O)c2c(n1C)NC(=O)CC2c1ccc(O)cc1OC (centres undefined) -9.83%
CCc1ccc(OCC(=O)NCC(c2ccc(OC)cc2)N2CCOCC2)cc1 (centres undefined) -4.56%
Cc1cccc(C)c1NC(=O)CN(C)S(=O)(=O)c1ccc2c(c1)n(C)c(=O)c(=O)n2C -1.69%
Cc1cccc(C(=O)N(Cc2nc(-c3ccc(Cl)cc3)no2)C(C)C)c1 -6.39%
CC(=O)c1cccc(NC(=O)Cn2c(C)c3cnn(-c4ccccc4)c(=O)c3c2C)c1 -11.1%
Cc1ccc2c(CNC3CCC(C)CC3)c(C(=O)O)n(Cc3cccc(F)c3)c2c1 (centres undefined) -0.671%
CCN(CC)CCNC(=O)c1ccc2c(c1)N(Cc1ccccc1)C(=O)c1ccccc1S2=O (centres undefined) -13%
COc1ccc(-n2c(=O)c3sc4ccccc4c3n(Cc3ccccc3)c2=O)cc1 -3.45%
COc1cc2c(cc1OC)C(c1ccc(F)cc1)N(c1ccc(F)cc1)C(=O)C2 (centres undefined) -1.98%
COc1cc(NC(=O)c2cc3nc(-c4ccccc4)cc(-c4ccccc4)n3n2)c(OC)cc1Cl -1.54%
CC1CCN(c2nc3ccc(C(=O)NCc4ccc(Cl)cc4)cc3s2)CC1 -3.35%
COc1ccc(C(=O)Nc2ccc3nc(SCC(=O)N4CCOCC4)sc3c2)cc1 -1.74%
COC(=O)c1ccc(OC)c(Cn2c(=O)n(-c3ccc(C)cc3)c(=O)c3c2cnn3C)c1 -0.374%
COc1ccc(C2CC(=O)N(CC(=O)Nc3ccc(C(F)(F)F)cc3)c3ccccc3S2)cc1 (centres undefined) 0.293%
O=C(Cn1c(=O)nc(-c2ccccc2)c2cc(Cl)ccc21)NCCCc1ccccc1 2.83%
CCc1nn(CC(=O)NC2CC2)c(=O)c2cc3ccccc3n12 -5.94%
COc1cccc(CNC(=O)c2c3c(nc4ccccc24)C(=O)N(C2CCCCC2)C3)c1 0%
Cn1cc(C(=O)NCc2ccccc2)c(=O)c2cc(S(=O)(=O)N3CCCCCC3)ccc21 2%
Cc1ccccc1Oc1nc2c(c(=O)n(C)c(=O)n2C)n1Cc1ccc(Br)cc1 1.12%
Cc1ccc(C)c(CSc2nc3ccncc3n2Cc2nc(-c3ccccc3Cl)oc2C)c1 0.164%
CCCCc1ccc(Nc2ncnc3c2cnn3-c2ccc(C)cc2)cc1 -2.25%
CCC1CCCCN1C(=O)Cn1c(=O)n(CC2CCC(C(=O)NC)CC2)c(=O)c2sccc21 (centres undefined) -0.699%
CC(NC(=O)CSc1n[nH]c(-c2ccccc2)n1)c1nc2ccccc2n1C (centres undefined) 2%
COc1cc(OC)c(NC(=O)c2cc(S(=O)(=O)N3CCCC3)cn2C)cc1Cl -0.244%
O=C(Nc1ccc(OC(F)(F)F)cc1)NC1COc2ccccc2C1 (centres undefined) -19.5%
COc1ccc(Cl)cc1S(=O)(=O)Nc1cccc(-c2ccc(N3CCOCC3)nn2)c1 -8.18%
COC(=O)c1ccc(C(=O)OC)c(NC(=O)c2c(-c3ccccc3)c(-c3ccccc3)nn(C)c2=O)c1 2.42%
Cc1ccc2c(c1)nc(SCC(O)c1ccc(Br)cc1)n2C (centres undefined) -3.25%
COc1ccc(N2CCN(Cc3nc4c(c(=O)[nH]c(=O)n4C)n3Cc3ccccc3)CC2)cc1 1.72%
Cn1c(=O)c2sccc2n2c(CCC(=O)NCc3ccccc3)nnc12 0%
O=C(CCCn1c(=O)c2ccccc2n(CC(=O)Nc2ccc(F)cc2F)c1=O)NCc1ccccc1Cl -8.09%
O=C(NCc1ccc(F)cc1)c1cc2c(s1)-c1ccccc1SC2 -0.133%
COc1ccc(NC(=O)c2cc3c(=O)n(Cc4ccco4)ccc3nc2C)c(OC)c1 0.632%
CCCCOC(=O)c1ccc(NC(=O)/C(C#N)=C/c2ccc(-c3ccccc3)o2)cc1 4.93%
COc1cc2c(=O)n(CCC(=O)NCC3CCCO3)c(=O)n(CC(=O)Nc3c(C)cccc3C)c2cc1OC (centres undefined) -3.53%
COc1cc(-c2nnc(SCC(=O)NC(C)C)o2)cc(OC)c1OC -1.32%
CCOc1ccc(CCNC(=O)C2Cc3ccccc3N2C(=O)CC)cc1OCC (centres undefined) 11.3%
CC(=O)c1ccc(NC(=O)CSc2ccc3nc(-c4ccccc4)cn3n2)cc1 7.22%
Cc1ccc(-c2cc(C(=O)N3CCN(S(=O)(=O)c4ccc(Br)s4)CC3)[nH]n2)c(C)c1 -12.1%
CN(C)c1ccc(CNC(=O)C(Cc2ccccc2)NS(=O)(=O)c2ccc3c(c2)oc(=O)n3C)cc1 (centres undefined) -6.85%
Cc1ccc(N(CC(=O)Nc2ccc(Br)c(C)c2)S(=O)(=O)c2cccs2)cc1 0.568%
Cc1ccc(C)c(NC(=O)Cn2c(=O)n(Cc3cccs3)c(=O)c3cccnc32)c1 -17.4%
COc1ccc(-c2cn3nc(N4CCC(C(=O)Nc5cc(Cl)ccc5OC)CC4)sc3n2)cc1 -6.55%
CC(C)(C)OC(=O)N1CCC(c2c(C(=O)N3CCN(c4ncccn4)CC3)cnn2-c2ccc(F)cc2F)CC1 1.95%
COc1ccc(OC)c(NC(=O)C(CCSC)NS(=O)(=O)c2cccs2)c1 (centres undefined) -1.38%
COc1ccc(-c2nc(SCC(=O)N3CCC(C)CC3)n[nH]2)cc1 0%
COc1ccc(C(=O)Nc2ccc(C(=O)OCc3cc(=O)n4nc(C(C)C)sc4n3)cc2)cc1 0%
Cc1ccc(Cl)cc1NC(=O)/C(C#N)=C\c1cn(Cc2ccc(F)cc2)c2ccccc12 3.05%
Cc1ccccc1C(=O)Nc1ccc2nc(SCCOc3ccccc3)sc2c1 -5.41%
CCOC(=O)c1c(S(=O)(=O)NCC(=O)NCc2ccc(C)cc2)c(C)n(C)c1C 0.404%
Cc1cc(SCC(=O)NCc2ccc(Cl)cc2)nc(=O)[nH]1 -2.64%
CCCCCn1c(=O)[nH]c2cc(C(=O)Nc3ccc(F)c(F)c3)ccc2c1=O 8.23%
Cc1ccc(S(=O)(=O)N2CCC(C(=O)NCc3ccccc3Cl)CC2)cc1 2.64%
Cc1cccc(NC(=O)c2cc(S(=O)(=O)NCCc3ccccc3)ccc2F)c1C 6.3%
Cc1ccccc1C(=O)Nc1cccc(OCc2cc(=O)n3c(C)csc3n2)c1 -5.29%
CCN1CCN(Cc2c(O)ccc3c(C)c(-c4ccc(OC)cc4)c(=O)oc23)CC1 -5.77%
CCN(CC)CCOC(=O)c1ccc(NC(=O)c2cc3c(=O)n(CC)c4ccccc4c3s2)cc1 -1.67%
COc1ccc(NC(=O)C2=CC(c3ccco3)=NS(=O)(=O)N2C)cc1 -4.94%
COc1ccccc1N1CCN(c2ncnc3c2nnn3C)CC1 -3.8%
Cc1ccc(C)c(NC(=O)CN2CCSc3ccc(S(=O)(=O)N4CCCC4)cc32)c1 -1.27%
CC(C)c1ccc(S(=O)(=O)N2CCC(n3c(C(F)(F)F)nc4cccnc43)CC2)cc1 4.35%
CCOC(=O)c1oc2ccc(S(=O)(=O)n3nc(-c4ccc(C)cc4)cc3N)cc2c1C 2.05%
COc1ccc(NC(=O)C2CCN(S(=O)(=O)c3cccc(-c4noc(C)n4)c3)CC2)cc1OC -1.97%
CC(C)c1ccc(CN(C(=O)c2cc3ccccc3oc2=O)C2CCS(=O)(=O)C2)cc1 (centres undefined) 0.757%
CCOCCn1ccc2c(OCC(=O)Nc3ccc(C(N)=O)cc3)cccc2c1=O 0.613%
CC(NC(=O)C1CCN(S(=O)(=O)Cc2ccccc2)CC1)c1ccccc1 (centres undefined) -0.795%
COc1cccc2sc(N(Cc3cccnc3)C(=O)c3ccc4c(c3)OCCO4)nc12 0.903%
COc1ccc(C2NC(=O)N(C)C3=C2C(=O)N(c2ccc(Br)cc2)C3)cc1 (centres undefined) -10.9%
Cc1cc(S(=O)(=O)N2CCN(Cc3noc(CCC(=O)N4CCCCC4)n3)CC2)ccc1F -3.2%
CN(C)c1ccc(CNC(=O)C2CCN(c3nc4ccccc4[nH]3)CC2)cc1 -0.348%
COC(=O)c1cc2occc2n1Cc1nc(-c2ccccc2)oc1C -10.6%
CCOC(=O)CC(NC(=O)CCc1c(C)nc2c(-c3ccccc3)c(C)nn2c1C)c1ccc(OC(C)C)cc1 (centres undefined) -5.56%
COc1cc2c(-c3cccc(Cl)c3)nc3c(c(C)nn3-c3ccccc3)c2cc1OC 2.39%
COc1ccc(Cn2c(CCC(=O)NCc3ccc(Cl)cc3)nc3cccnc32)cc1 -2.22%
CCOC(=O)COc1ccc(C2C(C(=O)OC)=C(C)NC3=C2C(=O)c2ccccc23)cc1Cl (centres undefined) -20.1%
COc1cccc(CNC(=O)c2cnc3sc(N4CCCC4)nn3c2=O)c1OC -4.59%
CSc1ccc(CCNC(=O)NCc2noc3ccccc23)cc1 -0.156%
CCOC(=O)c1cc(S(=O)(=O)Nc2cc(OC)ccc2OC)[nH]n1 0%
Cc1ccc(C(=O)NCC(c2ccc3c(c2)OCO3)N2CCOCC2)cc1C (centres undefined) 0.659%
COc1ccc(CNc2nc(-c3ccco3)nn2S(=O)(=O)c2ccc(Cl)cc2)cc1OC -6.76%
COc1ccc(-c2c(C#N)c(SCC(=O)Nc3ccccc3C)nc(C)c2C(=O)Nc2ccc(Cl)cc2)cc1 7.42%
COC(=O)c1c(NC(=O)CCCOc2cccc(C)c2)sc2c1CCC2 -7.59%
Cc1cc(O)c(C(c2cccc(F)c2)N2CCN(c3ccccc3)CC2)c(=O)n1Cc1ccco1 (centres undefined) 3.62%
Cc1cc(C)n(-c2nnc(Nc3ccc(C)c(C)c3)c3ccccc23)n1 -17%
COc1ccc(NC(=O)c2sc3nc4c(cc3c2N)CN(Cc2ccccc2)CC4)c(OC)c1 -0.176%
Cc1ccc(C)c(CN2C(=O)c3ccccc3S(=O)(=O)c3ccc(C(=O)OCC4CCCO4)cc32)c1 (centres undefined) 6.55%
COc1ccc(NC(=O)Cn2c(SCc3ccc(C)cc3)nc3cccnc32)cc1OC -19.5%
